The text on the data set:
Lipophilicity is one of the most important physico-chemical properties determining the biological activity of small molecules, affecting the non-specific diffusion through biological membranes. It is well known that antimycobacterial activity is often enhanced by increased lipophilicity, which facilitates the penetration through highly lipophilic mycobacterial outer envelope and cell wall. The lipophilicity of the prepared compounds was predicted as logP using commercially available software CS ChemDraw Ultra ver. 12.0 (CambridgeSoft, Cambridge, MA, USA). Additionally, the lipophilicity was measured experimentally by RP-HPLC and expressed as logk derived from retention times of individual compounds (see Table 1). […] Chem3D Pro’s (CambridgeSoft) built-in MM2 energy minimization function with default parameters was used to study the possibility of intramolecular H-bond formation. Indeed, all of these compounds were capable of forming the H-bond between the ortho substituent on the phenyl ring (lone electron pair as acceptor) and the hydrogen of the amide function (donor). The amide bond was in the trans configuration. See the model of compound 5 in Figure 1B for a representative example. As found in literature, the existence of this H-bond was confirmed experimentally for some similar anilides of POA (e.g., with ortho-NO2 substituent).
Instrumentation: Agilent Technologies 1200 SL liquid chromatograph with Diode-array Detector SL G1315C (Agilent Technologies Inc., Colorado Springs, CO, USA); pre-column ZORBAX XDB-C18 5 µm, 4 × 4 mm, Part No. 7995118-504 (Agilent Technologies Inc.) and column ZORBAX Eclipse XDB-C18 5 µm, 4.6 × 250 mm, Part No. 7995118-585 (Agilent Technologies Inc.). The separation process was controlled by Agilent ChemStation, version B.04.02 extended by spectral module (Agilent Technologies Inc.). Mobile phase consisted of MeOH (HPLC grade, 70%) and H2O (HPLC-Milli-Q Grade, 30%).
Conditions: Flow rate 1.0 mL/min, sample injection volume 20 µL, column temperature 30 °C, detection wavelength 210 nm, monitor wavelength 270 nm. Retention times (tR) were measured in minutes. The dead time of the system (tD) was determined as the retention time of KI methanol solution. Capacity factors k for individual compounds were calculated according to the formula k = (tR − tD)/tD. Logk, calculated from the capacity factor k, is used as the lipophilicity index converted to log scale.

In turn, `O=C(Nc1ccccc1)c1cnc(Cl)cn1` [Compound 1, 5-Chloro-N-phenylpyrazine-2-carboxamide] gave a Lipophilicity logk of 0.286.
For `O=C(Nc1ccccc1O)c1cnc(Cl)cn1` [Compound 2, 5-Chloro-N-(2-hydroxyphenyl)pyrazine-2-carboxamide] the value was 0.248; for `O=C(Nc1cccc(O)c1)c1cnc(Cl)cn1` [Compound 3, 5-Chloro-N-(3-hydroxyphenyl)pyrazine-2-carboxamide], −0.053.
Molecule `O=C(Nc1ccc(O)cc1)c1cnc(Cl)cn1` [Compound 4, 5-Chloro-N-(4-hydroxyphenyl)pyrazine-2-carboxamide] showed a Lipophilicity logk of −0.138.
Regarding `COc1ccc(NC(=O)c2cnc(Cl)cn2)c(OC)c1` [Compound 5], the Lipophilicity logk is reported as 0.579.
In the case of `Cc1ccc(C)c(NC(=O)c2cnc(Cl)cn2)c1` [Compound 6, 5-Chloro-N-(2,5-dimethylphenyl)pyrazine-2-carboxamide], the Lipophilicity logk is reported as 0.618.
On to `CCc1ccc(NC(=O)c2cnc(Cl)cn2)cc1` [Compound 7, 5-Chloro-N-(4-ethylphenyl)pyrazine-2-carboxamide], for which the Lipophilicity logk is 0.685.
`CC(C)c1ccc(NC(=O)c2cnc(Cl)cn2)cc1` [Compound 8, 5-Chloro-N-(4-isopropylphenyl)pyrazine-2-carboxamide] registered a Lipophilicity logk of 0.859.
The molecule `O=C(Nc1cccc(F)c1)c1cnc(Cl)cn1` [Compound 10, 5-Chloro-N-(3-fluorophenyl)pyrazine-2-carboxamide] yielded a Lipophilicity logk of 0.389.
For `O=C(Nc1ccc(F)cc1F)c1cnc(Cl)cn1` [Compound 11, 5-Chloro-N-(2,4-difluorophenyl)pyrazine-2-carboxamide] the value was 0.477.
In the case of `O=C(Nc1ccc(Cl)c(Cl)c1)c1cnc(Cl)cn1` [Compound 14, 5-Chloro-N-(3,4-dichlorophenyl)pyrazine-2-carboxamide], the Lipophilicity logk was found to be 0.881.
As to `O=C(Nc1cccc(Br)c1)c1cnc(Cl)cn1` [Compound 16, 5-Chloro-N-(3-bromophenyl)pyrazine-2-carboxamide], the Lipophilicity logk worked out at 0.646.
Molecule `Cc1ccc(F)cc1NC(=O)c1cnc(Cl)cn1` [Compound 19, 5-Chloro-N-(5-fluoro-2-methylphenyl)pyrazine-2-carboxamide] yielded a Lipophilicity logk of 0.525.
`Cc1ccc(Cl)c(NC(=O)c2cnc(Cl)cn2)c1` [Compound 20, 5-Chloro-N-(2-chloro-5-methylphenyl)pyrazine-2-carboxamide] displayed a Lipophilicity logk of 1.061.
`O=C(Nc1cc(Cl)ccc1O)c1cnc(Cl)cn1` [Compound 21, 5-Chloro-N-(5-chloro-2-hydroxyphenyl)pyrazine-2-carboxamide] came in with a Lipophilicity logk of 0.602.
On to `O=C(Nc1ccc(O)c(Cl)c1)c1cnc(Cl)cn1` [Compound 22, 5-Chloro-N-(3-chloro-4-hydroxyphenyl)pyrazine-2-carboxamide], for which the Lipophilicity logk was 0.070.
For `O=C(Nc1cc([N+](=O)[O-])ccc1O)c1cnc(Cl)cn1` [Compound 23, 5-Chloro-N-(2-hydroxy-5-nitrophenyl)pyrazine-2-carboxamide] the value was 0.230; for `O=C(Nc1ccccc1[N+](=O)[O-])c1cnc(Cl)cn1` [Compound 24, 5-Chloro-N-(2-nitrophenyl)pyrazine-2-carboxamide], 0.674; for `N#Cc1cccc(NC(=O)c2cnc(Cl)cn2)c1` [Compound 26, 5-Chloro-N-(3-cyanophenyl)pyrazine-2-carboxamide], 0.192.
The molecule `N#Cc1ccc(NC(=O)c2cnc(Cl)cn2)cc1` [Compound 27, 5-Chloro-N-(4-cyanophenyl)pyrazine-2-carboxamide] registered a Lipophilicity logk of 0.201.
`O=C(Nc1cccc(C(F)(F)F)c1)c1cnc(Cl)cn1` [Compound 28, 5-Chloro-N-(3-(trifluoromethyl)phenyl)pyrazine-2-carboxamide]: the Lipophilicity logk is 0.643.
On to `O=C(Nc1ccc(C(F)(F)F)cc1)c1cnc(Cl)cn1` [Compound 29, 5-Chloro-N-(4-(trifluoromethyl)phenyl)pyrazine-2-carboxamide], for which the Lipophilicity logk came out at 0.704.
